pIC50: −log10 of the molar value. IC50 is the fitted dose that halves viability relative to control wells, and lower means more sensitive; where the fit passes the top or lowest dose, that dose stands as a limit. AUC is the area under the same curve over the 256-fold range up to the top dose, as a fraction; values near 1 show little effect. Any top dose called inferred is not printed in the source and was worked back from the curve model.
Compound: N.N.[Cl][Pt][Cl] [Cisplatin]
Experiment: Viability of human cancer cell lines after 72 h of drug (GDSC screen)
Conditions: top dose inferred
Procedure: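 Human cancer cell lines in 384-well plates, medium with 10% serum, drug for 72 h over a 256-fold dose range (nine 2-fold or five 4-fold steps up to the top dose). Adherent lines were fixed and stained with the nucleic acid dye Syto60, suspension lines read with resazurin; signal relative to control wells, capped at 0 and 100%. One two-parameter sigmoid per drug and line, fitted in a mixed model over all curves with the slope shared within a line.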

| Cell Line | AUC | pIC50 |
| --- | --- | --- |
| Calu-6 (lung adenocarcinoma, adherent, top dose 10 µM) | 0.951 | < 5.00 |
| Caov-4 (ovary, adherent, top dose 10 µM) | 0.924 | < 5.00 |
| Capan-2 (pancreas, adherent, top dose 10 µM) | 0.964 | < 5.00 |
| D-247MG (glioma, adherent, top dose 10 µM) | 0.847 | < 5.00 |
| D-263MG (glioma, adherent, top dose 10 µM) | 0.84 | 5.04 |
| D-283MED (medulloblastoma, adherent, top dose 10 µM) | 0.811 | 5.32 |
| D-336MG (glioma, adherent, top dose 10 µM) | 0.915 | < 5.00 |
| D-392MG (glioma, adherent, top dose 10 µM) | 0.874 | < 5.00 |
| D-423MG (glioma, adherent, top dose 10 µM) | 0.877 | < 5.00 |
| D-502MG (glioma, adherent, top dose 10 µM) | 0.916 | < 5.00 |
| D-542MG (glioma, adherent, top dose 10 µM) | 0.926 | < 5.00 |
| D-566MG (glioma, adherent, top dose 10 µM) | 0.765 | 5.44 |
| DAN-G (pancreas, adherent, top dose 10 µM) | 0.972 | < 5.00 |
| DB (B-cell lymphoma, suspension, top dose 10 µM) | 0.908 | < 5.00 |
| DBTRG-05MG (glioma, adherent, top dose 10 µM) | 0.898 | < 5.00 |
| DEL (lymphoid neoplasm, suspension, top dose 10 µM) | 0.897 | 5.11 |
| DG-75 (Burkitt lymphoma, suspension, top dose 10 µM) | 0.948 | < 5.00 |
| DIFI (large intestine, adherent, top dose 10 µM) | 0.944 | < 5.00 |
| DJM-1 (skin, adherent, top dose 10 µM) | 0.953 | < 5.00 |
| DK-MG (glioma, adherent, top dose 10 µM) | 0.924 | < 5.00 |
| DMS-53 (small cell lung carcinoma, adherent, top dose 10 µM) | 0.986 | < 5.00 |

| Cell Line | AUC | pIC50 |
| --- | --- | --- |
| DMS-79 (small cell lung carcinoma, suspension, top dose 10 µM) | 0.912 | < 5.00 |
| DMS-114 (small cell lung carcinoma, adherent, top dose 10 µM) | 0.895 | < 5.00 |
| DMS-273 (small cell lung carcinoma, adherent, top dose 10 µM) | 0.863 | 5.02 |
| DND-41 (T-cell leukaemia, suspension, top dose 10 µM) | 0.941 | < 5.00 |
| DOHH-2 (B-cell lymphoma, suspension, top dose 10 µM) | 0.774 | 5.42 |
| DOK (head and neck, adherent, top dose 10 µM) | 0.89 | < 5.00 |
| DOV13 (ovary, adherent, top dose 10 µM) | 0.881 | < 5.00 |
| DSH1 (bladder, adherent, top dose 10 µM) | 0.97 | < 5.00 |
| DU-145 (prostate, adherent, top dose 10 µM) | 0.875 | < 5.00 |
| DU-4475 (breast, suspension, top dose 10 µM) | 0.932 | < 5.00 |
| Daoy (medulloblastoma, adherent, top dose 10 µM) | 0.669 | 5.76 |
| Daudi (Burkitt lymphoma, suspension, top dose 10 µM) | 0.975 | < 5.00 |
| Detroit562 (head and neck, adherent, top dose 10 µM) | 0.941 | < 5.00 |
| DoTc2-4510 (cervix, adherent, top dose 10 µM) | 0.879 | 5.03 |
| EB2 (Burkitt lymphoma, suspension, top dose 10 µM) | 0.926 | < 5.00 |
| EB-3 (Burkitt lymphoma, suspension, top dose 10 µM) | 0.978 | < 5.00 |
| EBC-1 (lung squamous cell carcinoma, adherent, top dose 10 µM) | 0.932 | < 5.00 |
| EC-GI-10 (oesophagus, adherent, top dose 10 µM) | 0.906 | < 5.00 |
| ECC10 (stomach, suspension, top dose 10 µM) | 0.934 | < 5.00 |
| EFM-19 (breast, adherent, top dose 10 µM) | 0.955 | < 5.00 |
| EFM-192A (breast, adherent, top dose 10 µM) | 0.963 | < 5.00 |

| Cell Line | AUC | pIC50 |
| --- | --- | --- |
| EFO-21 (ovary, adherent, top dose 10 µM) | 0.953 | < 5.00 |
| EFO-27 (ovary, adherent, top dose 10 µM) | 0.891 | < 5.00 |
| EGI-1 (biliary tract, adherent, top dose 10 µM) | 0.841 | < 5.00 |
| EHEB (lymphoid neoplasm, suspension, top dose 6 µM) | 0.922 | < 5.22 |
| EJM (lymphoid neoplasm, semi-adherent, top dose 10 µM) | 0.988 | < 5.00 |
| EKVX (lung adenocarcinoma, adherent, top dose 10 µM) | 0.962 | < 5.00 |
| EM-2 (chronic myeloid leukaemia, suspension, top dose 10 µM) | 0.954 | < 5.00 |
| EMC-BAC-1 (lung adenocarcinoma, adherent, top dose 10 µM) | 0.906 | < 5.00 |
| EMC-BAC-2 (lung adenocarcinoma, adherent, top dose 10 µM) | 0.84 | 5.06 |
| EN (endometrium, adherent, top dose 10 µM) | 0.917 | < 5.00 |
| EPLC-272H (lung squamous cell carcinoma, adherent, top dose 10 µM) | 0.898 | < 5.00 |
| ES1 (Ewing sarcoma, adherent, top dose 10 µM) | 0.807 | 5.30 |
| ES4 (Ewing sarcoma, adherent, top dose 10 µM) | 0.661 | 5.73 |
| ES5 (Ewing sarcoma, adherent, top dose 10 µM) | 0.728 | 5.51 |
| ES6 (Ewing sarcoma, adherent, top dose 10 µM) | 0.867 | < 5.00 |
| ES7 (Ewing sarcoma, adherent, top dose 10 µM) | 0.705 | 5.62 |
| ES8 (Ewing sarcoma, adherent, top dose 10 µM) | 0.794 | 5.37 |
| ES-2 (ovary, adherent, top dose 10 µM) | 0.881 | 5.08 |
| ESO26 (oesophagus, adherent, top dose 10 µM) | 0.891 | < 5.00 |
| ESO51 (oesophagus, semi-adherent, top dose 10 µM) | 0.971 | < 5.00 |
| ESS-1 (endometrium, adherent, top dose 10 µM) | 0.743 | 5.55 |

| Cell Line | AUC | pIC50 |
| --- | --- | --- |
| ETK-1 (biliary tract, adherent, top dose 10 µM) | 0.939 | < 5.00 |
| EVSA-T (breast, adherent, top dose 10 µM) | 0.904 | 5.00 |
| EW-1 (Ewing sarcoma, semi-adherent, top dose 10 µM) | 0.861 | 5.13 |
| EW-3 (Ewing sarcoma, adherent, top dose 10 µM) | 0.721 | 5.53 |
| EW-7 (Ewing sarcoma, semi-adherent, top dose 10 µM) | 0.751 | 5.53 |
| EW-11 (Ewing sarcoma, adherent, top dose 10 µM) | 0.741 | 5.42 |
| EW-13 (Ewing sarcoma, suspension, top dose 10 µM) | 0.947 | < 5.00 |
| EW-16 (Ewing sarcoma, adherent, top dose 10 µM) | 0.863 | 5.03 |
| EW-18 (Ewing sarcoma, suspension, top dose 10 µM) | 0.924 | < 5.00 |
| EW-22 (Ewing sarcoma, adherent, top dose 10 µM) | 0.701 | 5.65 |
| EoL-1-cell (haematopoietic neoplasm, suspension, top dose 10 µM) | 0.9 | < 5.00 |
| FADU (head and neck, adherent, top dose 10 µM) | 0.893 | < 5.00 |
| FLO-1 (oesophagus, adherent, top dose 10 µM) | 0.873 | < 5.00 |
| FTC-133 (thyroid, adherent, top dose 10 µM) | 0.806 | 5.24 |
| FU97 (stomach, adherent, top dose 10 µM) | 0.945 | < 5.00 |
| FU-OV-1 (ovary, adherent, top dose 10 µM) | 0.934 | < 5.00 |
| Farage (B-cell lymphoma, suspension, top dose 10 µM) | 0.98 | < 5.00 |
| G-292 Clone A141B1 (osteosarcoma, adherent, top dose 10 µM) | 0.795 | 5.08 |
| G-361 (melanoma, adherent, top dose 10 µM) | 0.894 | < 5.00 |
| G-401 (kidney, adherent, top dose 10 µM) | 0.85 | 5.06 |
